Assay results as given in PMC6212790.
This is one part of the list. At the low end of the ranking the order means little.

Target: T1, GST-Rok-C97-191 (UniProt O34857)
T1 sequence: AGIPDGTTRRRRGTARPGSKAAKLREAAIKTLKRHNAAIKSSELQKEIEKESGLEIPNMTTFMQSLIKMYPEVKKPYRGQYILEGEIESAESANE
Assay: protein binding microarray;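 further: rank score from −0.5 (least bound) to 0.5 (best bound)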
Settings: Rok is a gene silencer of Bacillus subtilis; high values mean tight binding; most listed sequences are background and not binding sites; double strand, one strand shown

Sequence | binding signal
AGACTACA | 0.0455 E-score
TCCTGCAA | -0.114 E-score
GCGCGAAA | 0.0801 E-score
CCTCACTA | 0.0289 E-score
CCCAACCC | -0.149 E-score
TGGCGGAA | -0.262 E-score
CAGGTGAC | -0.0368 E-score
AAAAGATT | 0.219 E-score
AGGTAACC | -0.0558 E-score
ATTCAGGG | -0.18 E-score
AGACCACT | -0.0232 E-score
AAAATAGA | 0.271 E-score
TCCGGTCA | -0.0339 E-score
AGACGAGC | -0.285 E-score
TCTGAGCA | -0.245 E-score
ACCTTTTG | 0.221 E-score
TAACGAGA | 0.0117 E-score
GAATCTGC | 0.0609 E-score
CTACTAAG | 0.261 E-score
CCCCAGCA | -0.234 E-score
CAACTAGG | 0.156 E-score
CCACTTAC | 0.102 E-score
ACGGATGG | -0.179 E-score
CGAGTACA | 0.00587 E-score
ACTTCTCA | 0.153 E-score

Sequence | binding signal
CTCCAAAA | -0.0105 E-score
TCCTGAAA | -0.138 E-score
AACCGTCA | -0.152 E-score
CCCGACGG | -0.0646 E-score
GATTGACA | -0.0762 E-score
ATTTGATA | 0.185 E-score
CCCAGACA | -0.285 E-score
AGGTAATA | 0.328 E-score
AAGCAAAC | 0.141 E-score
TACGATAA | 0.259 E-score
AGGATGCG | -0.123 E-score
ACTCTGCA | -0.192 E-score
GTTCGGGA | -0.0165 E-score
CGGGCTGA | -0.0375 E-score
GTCTTCAC | -0.002 E-score
AAACACCA | 0.00755 E-score
CGGTCTCC | -0.172 E-score
ACGTTTGA | -0.0847 E-score
GGCGGAAC | -0.23 E-score
AGGGGCAG | -0.203 E-score
CCGGATAC | -0.122 E-score
AACCCACC | -0.282 E-score
ACCGCCGC | -0.0671 E-score
AGCTGATC | 0.0488 E-score
TGAGGGCA | -0.329 E-score

Sequence | binding signal
CGTGTCAA | -0.26 E-score
CGTTTGTC | -0.0237 E-score
TGCCTACA | 0.00909 E-score
GATGTGGA | -0.0761 E-score
AGCTCTAC | -0.0441 E-score
ACAATTTC | 0.116 E-score
CCGTCTCA | -0.181 E-score
ACGTAAGC | -0.115 E-score
ACAGCCGG | -0.361 E-score
ACTGCCAT | -0.216 E-score
CAATAAAA | 0.239 E-score
GGCCAGCC | -0.353 E-score
ATATCGCG | 0.227 E-score
ACTGGCGC | -0.135 E-score
CTTAGCTA | 0.178 E-score
CACGCACC | -0.101 E-score
AATTAAAA | 0.259 E-score
ATTATGGG | 0.0918 E-score
ATTTGCTA | 0.17 E-score
CACATCAC | -0.0514 E-score
GCATGTTA | 0.0297 E-score
AGCGTTAT | 0.00996 E-score
CGGTACAC | 0.0478 E-score
TGCCTCAA | -0.08 E-score
GCGTAGCA | -0.222 E-score

Sequence | binding signal
CCACATGA | 0.0378 E-score
GCCGTATA | -0.103 E-score
TTGTACAA | 0.342 E-score
GCGAAGGA | -0.246 E-score
CGCATAAG | -0.00117 E-score
CCTTTGAG | -0.221 E-score
CATCTAAA | 0.111 E-score
GTGCCACA | -0.242 E-score
CGTTAGTC | 0.108 E-score
CTAAAAAC | 0.0687 E-score
CGTTACGC | -0.0756 E-score
GTTCAAAC | -0.183 E-score
GACGGTAA | 0.0966 E-score
TAATGTAA | 0.357 E-score
ATAAGGCA | 0.0952 E-score
AGTAGACG | -0.0652 E-score
AAAGCACA | -0.0242 E-score
AGTTAAAG | -0.015 E-score
GTTAAACA | 0.0896 E-score
AGTTACAA | 0.163 E-score
CAGCGCCG | -0.341 E-score
ATACCGTG | 0.206 E-score
ATTGCGAA | 0.178 E-score
CTTCTCCC | -0.124 E-score
AATGGTTG | -0.113 E-score

Sequence | binding signal
TCCCTCCA | -0.323 E-score
ACGATAGT | 0.235 E-score
CCGATCGG | -0.181 E-score
CAATAACC | 0.00883 E-score
CGAAGCGA | -0.0591 E-score
ACAATTCA | -0.0909 E-score
ACTCACTA | 0.134 E-score
AGTGTTTA | -0.00335 E-score
GCAAAGGA | -0.136 E-score
ATATGTTC | 0.238 E-score
GAGGTGGC | -0.214 E-score
CAAGCCAC | -0.255 E-score
GTTCCAAC | -0.0996 E-score
CAGTGGAC | -0.144 E-score
GTTCACGA | -0.05 E-score
CCCGGTCA | -0.121 E-score
AGTAAGCG | 0.054 E-score
GAATATGA | 0.126 E-score
CTCACCCA | -0.0563 E-score
CGTTCTGC | -0.202 E-score
AACGGATC | -0.0204 E-score
ATCGTCAA | 0.0641 E-score
GACCGGGC | -0.375 E-score
TACGCAGA | -0.138 E-score
GGAATACC | 0.106 E-score

Sequence | binding signal
GGACCTAC | 0.0794 E-score
CCTATACA | 0.159 E-score
CATCTCGG | -0.0491 E-score
GCCCAGAA | -0.221 E-score
CAACGACG | -0.122 E-score
CGCGTAAC | 0.167 E-score
AAGTAGAC | 0.021 E-score
CCAGACCA | -0.253 E-score
ATGGCGAG | -0.164 E-score
AATACATG | 0.2 E-score
AAGATGGA | -0.195 E-score
GTTCTCCA | -0.0391 E-score
CGTCACAC | -0.165 E-score
ATGCATAA | 0.165 E-score
CTTGCAAA | -0.06 E-score
CAAACCGG | 0.137 E-score
CAGACTCC | -0.0644 E-score
CCCACTCA | -0.0258 E-score
CTGGTCAA | 0.00605 E-score
AGATTCTC | 0.00255 E-score
CGGATACA | 0.059 E-score
AGCGGAAC | -0.102 E-score
ATGGCCCA | -0.0422 E-score
CAAAATTC | 0.0531 E-score
CCCGAGCG | -0.271 E-score

Sequence | binding signal
CGCTACAC | -0.0491 E-score
CGAAACGC | -0.312 E-score
GCTCCACC | -0.192 E-score
CAGCCTCG | -0.271 E-score
ACATTGTA | 0.241 E-score
CTAAAGAA | 0.0845 E-score
CGAGCACA | 0.0472 E-score
GGGCGCAA | -0.203 E-score
ACACACGT | 0.0415 E-score
ATTAACTA | 0.367 E-score
GAGTATAA | 0.0557 E-score
CCGGTGCA | -0.239 E-score
AGTCACCC | -0.348 E-score
GGGTTATA | -0.0341 E-score
GCTCAAGA | -0.113 E-score
GGAGTCAA | -0.113 E-score
AGCATCGG | -0.0833 E-score
AATTCCTA | 0.155 E-score
CCTCCCCC | -0.317 E-score
CTGAGCGC | -0.0319 E-score
CAATTGCG | 0.225 E-score
GCCGAAAC | -0.0745 E-score
